{
  "source": "PubChem BioAssay AID588453",
  "about": "(National Center for Advancing Translational Sciences (NCATS), 2011)",
  "note": "In all, about 390,000 compounds went through this assay and about 4,000 (1%) were called active. The inconclusive results got no clear call from the source; some entries with a clear call stand among them for comparison. Calls come from the whole dose curve; as a rule, active = well fitted inhibition curve with a large enough effect; inconclusive = small, poorly fitted or top-dose-only effect; inactive = no such curve, though single readings can be large or run the other way. Potencies of inconclusive entries are doubtful fits and often do not repeat. % is set by controls: 0 for no effect and ±100 for the full control effect; potency is the fitted concentration of half-maximal effect; tags give direction and shape of the fitted curve.",
  "data": [
    {"target": "Thioredoxin reductase 1, cytoplasmic (Rattus norvegicus) (UniProt O89049)", "sequence (O89049 whole entry, looked up)": "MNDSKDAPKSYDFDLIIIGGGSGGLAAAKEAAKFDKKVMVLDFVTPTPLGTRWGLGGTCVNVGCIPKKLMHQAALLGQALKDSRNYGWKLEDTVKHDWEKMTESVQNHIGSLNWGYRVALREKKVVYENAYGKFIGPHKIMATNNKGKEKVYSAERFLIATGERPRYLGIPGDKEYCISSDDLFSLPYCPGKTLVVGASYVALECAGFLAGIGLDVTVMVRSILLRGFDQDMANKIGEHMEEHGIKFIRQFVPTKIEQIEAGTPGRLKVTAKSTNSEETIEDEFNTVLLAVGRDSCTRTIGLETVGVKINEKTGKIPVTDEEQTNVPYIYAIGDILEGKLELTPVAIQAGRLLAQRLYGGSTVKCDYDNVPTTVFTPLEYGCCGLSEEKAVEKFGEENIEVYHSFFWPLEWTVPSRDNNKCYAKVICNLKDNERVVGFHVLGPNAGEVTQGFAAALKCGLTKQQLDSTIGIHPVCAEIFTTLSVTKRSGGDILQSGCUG", "test": "qHTS Assay for Inhibitors of Mammalian Selenoprotein Thioredoxin Reductase 1 (TrxR1): qHTS; note: nearly all actives have a fitted effect of over 65% in size", "details": "recombinant rTrxR1, NADPH fluorescence consumption, selenite substrate; series mostly up to 114 µM", "how_it_was_run": "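Rat TrxR1 (90 nM in the dispensed reagent) was pre-reduced with 400 uM NADPH for 5 min at room temperature, then incubated with compound for 15 min. After 400 uM selenite was added, NADPH fluorescence (Ex 340/Em 450 nm) was followed for 8 min.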", "values": [
      {"smiles": "O=C(NC(=S)Nc1ccc(N2CCOCC2)cc1)c1cccc([N+](=O)[O-])c1", "Potency": "inconclusive: 17.8 µM [inhibitor, full curve, poor fit]"},
      {"smiles": "Cc1ccc(NC(=O)c2cc(-c3ccc(C)o3)nc3ccccc23)nc1", "Potency": "active: 14.1 µM"},
      {"smiles": "COCc1[nH]nc2c1C(c1ccsc1)C(C#N)=C(N)O2", "note": "(configuration not stated)", "Potency": "inactive"},
      {"smiles": "CCOC(=O)CSC1=C(C#N)C(=O)NC(c2ccc(OC)c(OC)c2)S1", "note": "(configuration not stated)", "Potency": "inconclusive: 31.6 µM [inhibitor, single point]"},
      {"smiles": "CC(=O)OCC1=C(C(=O)O)N2C(=O)C(NC(=O)c3ccc(F)cc3)C2SC1", "note": "(configuration not stated)", "Potency": "inconclusive: 12.6 µM [inhibitor, full curve]"},
      {"smiles": "CCOC(=O)C(C(=O)OCC)=C1OC(=O)c2ccccc21", "Potency": "inconclusive: 35.5 µM [inhibitor, partial curve]"},
      {"smiles": "Cc1ccc(C2C=C(c3ccccc3)Nc3nc(N4C(=O)CCC4=O)nn32)cc1", "note": "(configuration not stated)", "Potency": "inconclusive: 25.1 µM [inhibitor, partial curve]"},
      {"smiles": "CCCCCC1CC(CC(=O)Nc2ccc([N+](=O)[O-])cc2)OC1=O", "note": "(configuration not stated)", "Potency": "inactive"},
      {"smiles": "CN(c1nc2nonc2nc1NC1CC1)C1CCOC1", "note": "(configuration not stated)", "Potency": "inconclusive: 79.4 µM [inhibitor, partial curve, poor fit]"},
      {"smiles": "O=C1CC(Sc2nnnn2-c2ccccc2)C(=O)N1c1cccc(Cl)c1", "note": "(configuration not stated)", "Potency": "active: 31.6 µM"},
      {"smiles": "Cc1nnc(NC(=O)CCn2c(=O)oc3ccc(Cl)cc32)s1", "Potency": "inconclusive: 79.4 µM [inhibitor, single point]"},
      {"smiles": "Cc1cc(C)nc(SCc2cc(=O)c(OC(=O)c3ccc(Cl)c([N+](=O)[O-])c3)co2)n1", "Potency": "inconclusive: 22.4 µM [inhibitor, full curve]"},
      {"smiles": "CC(=O)Nc1ccc(NC(=S)Nc2ccccc2)cc1", "Potency": "inconclusive: 15.8 µM [inhibitor, partial curve, poor fit]"},
      {"smiles": "COc1ccc(NC(=O)c2cc3c(Cl)nc4ccccc4c3s2)cc1OC", "Potency": "inconclusive: 89.1 µM [inhibitor, partial curve, poor fit]"},
      {"smiles": "c1ccc(C2CSc3ccccc3N2)cc1", "note": "(configuration not stated)", "Potency": "inactive"},
      {"smiles": "N#CC1=C(Nc2ccccc2Cl)SC(c2ccccc2O)NC1=O", "note": "(configuration not stated)", "activity change, negative = inhibition": "inactive: -0.628% [at 2.29 µM]"},
      {"smiles": "Cc1nnc(SCC(=O)NC(=O)NC(C)(C)C)s1", "Potency": "inconclusive: 7.08 µM [inhibitor, single point]"},
      {"smiles": "O=C(O)CCC(=O)N1N=C(c2ccc(Br)cc2)CC1c1ccc(Br)cc1", "note": "(configuration not stated)", "Potency": "inactive"},
      {"smiles": "CCCOc1ccc(/C=C/C(=O)Nc2sc(C)c(C)c2C(=O)OCC)cc1OC", "Potency": "inconclusive: 39.8 µM [inhibitor, partial curve, poor fit]"},
      {"smiles": "CCC(c1nnnn1Cc1ccco1)N(Cc1cc2cc(C)cc(C)c2[nH]c1=O)CC1CCCO1", "note": "(configuration not stated)", "Potency": "inconclusive: 20 µM [inhibitor, single point]"},
      {"smiles": "CCC1CN(C(=O)NCc2cccc(OC)c2)c2cc(Cl)ccc2O1", "note": "(configuration not stated)", "Potency": "inactive"},
      {"smiles": "CCOC(=O)COn1c(=O)c(-c2ccco2)[n+]([O-])c2ccccc21", "Potency": "active: 8.91 µM"},
      {"smiles": "COc1ccc(CNC(=O)C(c2ccc(C)o2)N(Cc2cccs2)C(=O)Cc2cccs2)cc1", "note": "(configuration not stated)", "Potency": "inconclusive: 20 µM [inhibitor, single point]"},
      {"smiles": "O=S(=O)(c1ccc2ccccc2c1)N1CCN(S(=O)(=O)N2CCOCC2)CC1", "Potency": "inconclusive: 39.8 µM [inhibitor, single point]"},
      {"smiles": "O=C(CCl)N(CCCNC(=O)C(F)(F)F)c1ccc([N+](=O)[O-])cc1", "Potency": "inconclusive: 39.8 µM [inhibitor, single point]"},
      {"smiles": "CC(=O)OCC1=C(C(=O)O)N2C(=O)C(NC(=O)C(C)Cn3nc(C)c(Cl)c3C)C2SC1", "note": "(configuration not stated)", "Potency": "inconclusive: 79.4 µM [inhibitor, partial curve]"},
      {"smiles": "O=C(NCCCN1CCOCC1)c1cn(-c2ccccc2)nc1-c1ccc(Br)cc1", "Potency": "inactive"},
      {"smiles": "Cc1ccc(S(=O)(=O)NCC(=O)N(CCc2ccccc2)CC(=O)NCc2ccco2)cc1", "Potency": "active: 22.4 µM"},
      {"smiles": "Cc1csc(NC(=O)C(F)(F)F)n1", "Potency": "inactive"},
      {"smiles": "O=C(NCc1ccccn1)C(=O)NCC1OCCN1S(=O)(=O)c1ccc([N+](=O)[O-])cc1", "note": "(configuration not stated)", "Potency": "inconclusive: 89.1 µM [inhibitor, single point]"},
      {"smiles": "O=C(COc1ccc(/C=C\\[N+](=O)[O-])cc1)N1CCOCC1", "Potency": "active: 14.1 µM"},
      {"smiles": "CC(C)n1nc(C(=O)OCn2nnc3ccccc3c2=O)c2ccccc2c1=O", "Potency": "inconclusive: 70.8 µM [inhibitor, single point]"},
      {"smiles": "CC(/C=N/n1c(-c2cccnc2)n[nH]c1=S)=C\\c1ccco1", "Potency": "inconclusive: 39.8 µM [inhibitor, single point]"},
      {"smiles": "O=S(=O)(c1ccc2ccccc2c1)N1CCN(c2nc(-c3ccccc3)nc3ccccc23)CC1", "Potency": "inactive"},
      {"smiles": "CNc1ncnc(Sc2ccc(Cl)cc2)c1[N+](=O)[O-]", "Potency": "inconclusive: 15.8 µM [inhibitor, partial curve]"},
      {"smiles": "CCc1ccc(S(=O)(=O)Nc2ccc3c(c2)sc(=O)n3C)cc1", "Potency": "inactive"},
      {"smiles": "O=c1c2ccccc2nc(SCc2ccccc2)n1Cc1ccco1", "Potency": "inconclusive: 70.8 µM [inhibitor, single point]"},
      {"smiles": "CCC(=O)N1CCCc2cc(S(=O)(=O)N3CCCc4ccccc43)ccc21", "Potency": "inactive"},
      {"smiles": "Cc1cccc(C)c1NC(=O)CCCSc1nnc(-c2ccco2)n1-c1ccccc1", "Potency": "inconclusive: 31.6 µM [inhibitor, single point]"},
      {"smiles": "Cc1cc(C)n(-c2nc(NCc3cccnc3)c3c4c(sc3n2)COC(C)(C)C4)n1", "Potency": "inactive"},
      {"smiles": "CC(=O)c1ccc(-c2ccc(C(=O)N3CCC(C(N)=O)CC3)o2)cc1", "Potency": "inconclusive: 79.4 µM [inhibitor, single point]"},
      {"smiles": "Cc1ccc(S(=O)(=O)N2CCN(c3nc(-c4ncco4)nc4ccccc34)CC2)cc1", "Potency": "inactive"},
      {"smiles": "COc1ccc(Br)cc1C(=O)Nc1ccccc1N1CCN(C(=O)c2ccccc2)CC1", "Potency": "inactive"},
      {"smiles": "CCN(C(=O)c1ccco1)c1nc(CC(=O)Nc2ccc(Cl)cc2)cs1", "Potency": "inconclusive: 35.5 µM [inhibitor, partial curve, poor fit]"},
      {"smiles": "CC1(C)CC(=O)C=C(NNC(=O)c2ccccc2O)C1", "Potency": "inconclusive: 3.16 µM [inhibitor, full curve]"},
      {"smiles": "N#C/C(=C\\c1ccc(N2CCOCC2)o1)C(=O)NCC1CCCO1", "note": "(configuration not stated)", "Potency": "inconclusive: 56.2 µM [inhibitor, partial curve, poor fit]"},
      {"smiles": "Cc1cc(C)n2nc(CNS(=O)(=O)c3cccc(Cl)c3)nc2n1", "Potency": "inconclusive: 79.4 µM [inhibitor, partial curve, poor fit]"},
      {"smiles": "Cc1noc(C)c1C(=O)Nc1sccc1C(N)=O", "Potency": "inconclusive: 89.1 µM [inhibitor, partial curve, poor fit]"},
      {"smiles": "NC(=O)Nn1c(CCC(=O)O)ccc1-c1ccc(Br)cc1", "Potency": "inconclusive: 70.8 µM [inhibitor, single point]"},
      {"smiles": "CCC(C)NC(=O)c1ccc(CNS(=O)(=O)c2ccc3c(c2)C(C)(C)C(=O)N3C)cc1", "note": "(configuration not stated)", "Potency": "inactive"},
      {"smiles": "COC(=O)c1c(NC(=O)Cc2coc3cc(C)cc(C)c23)sc2c1CCC2", "Potency": "inconclusive: 89.1 µM [inhibitor, single point]"},
      {"smiles": "Cc1cccc2sc(NC(=O)Cn3cccc3)nc12", "Potency": "inconclusive: 28.2 µM [inhibitor, full curve, poor fit]"},
      {"smiles": "COc1ccc(C2CC(=O)c3cc(-c4nc(-c5cccc([N+](=O)[O-])c5)cs4)c(=O)n(-c4cccc(C)c4)c3C2)cc1", "note": "(configuration not stated)", "Potency": "inactive"},
      {"smiles": "COCCNC(=O)c1c(NC(=O)c2cc(=O)c3cc(C)cc(C)c3o2)sc2c1CCCC2", "Potency": "inactive"},
      {"smiles": "NC(=O)N1OCC2COc3ccc4ccccc4c3C21", "note": "(configuration not stated)", "Potency": "inactive"},
      {"smiles": "Cc1cc(C(=O)CCl)c(C)n1CCc1ccc(F)cc1", "Potency": "inconclusive: 14.1 µM [inhibitor, partial curve]"},
      {"smiles": "O=C1CC(c2ccco2)CC2=C1C=Nc1ccccc1N2", "note": "(configuration not stated)", "Potency": "inconclusive: 39.8 µM [inhibitor, partial curve, poor fit]"},
      {"smiles": "C[C@@]12C=Cc3occc3[C@H]1CC[C@]13CC(=O)[C@@H](CC[C@H]12)C3", "Potency": "inconclusive: 25.1 µM [inhibitor, single point]"},
      {"smiles": "COc1cccc(Cn2c(C)c(CNCc3cccc(C)c3)c(C(=O)O)c2C)c1", "Potency": "inconclusive: 89.1 µM [inhibitor, partial curve, poor fit]"},
      {"smiles": "CCC(=O)N1CCc2cc(S(=O)(=O)NCCCN(CC)Cc3ccccc3)ccc21", "Potency": "inconclusive: 63.1 µM [inhibitor, single point]"},
      {"smiles": "O=C(O)CS(=O)CC(=O)NCc1cccc(C(F)(F)F)c1", "note": "(configuration not stated)", "Potency": "inconclusive: 89.1 µM [inhibitor, partial curve, poor fit]"},
      {"smiles": "COc1ccccc1C(=O)NCc1ccco1", "Potency": "inconclusive: 70.8 µM [inhibitor, partial curve]"},
      {"smiles": "CCn1nc(C(=O)NNC(=O)COc2ccc(OC)cc2)c2ccccc2c1=O", "Potency": "inconclusive: 89.1 µM [inhibitor, single point]"},
      {"smiles": "CC(C)c1csc(CN2CCC(CCC(=O)NCC3CCCO3)CC2)n1", "note": "(configuration not stated)", "Potency": "inconclusive: 89.1 µM [inhibitor, partial curve, poor fit]"},
      {"smiles": "COc1cccc(C2C(C(=O)Nc3ccccc3OC)=C(C)Nc3nc(-c4ccco4)nn32)c1", "note": "(configuration not stated)", "Potency": "inconclusive: 56.2 µM [inhibitor, partial curve, poor fit]"},
      {"smiles": "O=c1cc(N2CCN(c3ccccc3)CC2)[nH]c(=O)n1-c1ccccc1Cl", "Potency": "inconclusive: 28.2 µM [inhibitor, partial curve]"},
      {"smiles": "COc1ccc(NC2=CC(c3ccccc3)N(c3ccc(OC)cc3)C2=O)cc1", "note": "(configuration not stated)", "Potency": "inconclusive: 39.8 µM [inhibitor, partial curve]"}
    ]}
  ]
}
